Assay results as given in US9598481B2 (priority 2012, dated 2017).

Test system: H1N1 A/PR/8/1934
Settings: mouse, in vivo

For `CCOC(=O)C1=C[C@@H](OC(CC)CC)[C@H](NC(C)=O)[C@@H](N)C1` [oseltamivir, oseltamivir phosphate], the “mortality compared with control-treated animals” value was “very similar” and the “mice protected from lethality” value (iv, 15 mg/kg) was 37.5%.
